Whole data set: some 110,000 compounds, median “z-score” near -0.1, cut for the highest 2% near 2. Some of the results follow.
These compounds were tested against Metabotropic glutamate receptor 8 (Rattus norvegicus) (UniProt P70579) (assay: rat mGluR8 modulators via GIRK flux, primary screen, cell-based, thallium flux, HTS (AID 488969)). Conditions: HEK293 rat mGluR8, GIRK (G protein-gated inwardly rectifying potassium channel) thallium flux, FluoZin2; at 10 µM; stronger effect = higher value; submaximal glutamate (EC20) added with thallium.
Chain of UniProt P70579 (P70579 whole entry, looked up): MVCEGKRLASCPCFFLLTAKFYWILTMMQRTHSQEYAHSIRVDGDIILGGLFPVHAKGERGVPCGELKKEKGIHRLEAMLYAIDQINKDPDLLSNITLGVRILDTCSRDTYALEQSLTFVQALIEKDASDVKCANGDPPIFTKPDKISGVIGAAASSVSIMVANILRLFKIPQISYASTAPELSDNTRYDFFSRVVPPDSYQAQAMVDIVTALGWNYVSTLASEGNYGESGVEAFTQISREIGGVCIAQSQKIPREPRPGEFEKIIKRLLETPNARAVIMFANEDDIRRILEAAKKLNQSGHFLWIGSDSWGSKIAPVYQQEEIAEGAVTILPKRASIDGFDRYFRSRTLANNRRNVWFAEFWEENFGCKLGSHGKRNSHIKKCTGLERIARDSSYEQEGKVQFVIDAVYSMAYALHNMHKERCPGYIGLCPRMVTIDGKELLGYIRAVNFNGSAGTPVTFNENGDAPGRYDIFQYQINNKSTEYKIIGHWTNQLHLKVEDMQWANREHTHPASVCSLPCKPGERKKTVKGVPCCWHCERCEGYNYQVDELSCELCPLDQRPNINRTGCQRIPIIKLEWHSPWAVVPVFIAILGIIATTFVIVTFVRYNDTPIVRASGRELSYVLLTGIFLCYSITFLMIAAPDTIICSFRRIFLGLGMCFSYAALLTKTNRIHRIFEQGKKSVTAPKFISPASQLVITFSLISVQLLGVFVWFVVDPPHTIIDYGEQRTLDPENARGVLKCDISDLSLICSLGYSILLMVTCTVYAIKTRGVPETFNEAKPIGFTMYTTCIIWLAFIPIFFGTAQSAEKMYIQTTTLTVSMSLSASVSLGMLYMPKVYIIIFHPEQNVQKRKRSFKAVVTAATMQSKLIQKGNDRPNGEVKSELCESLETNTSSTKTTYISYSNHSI

Row | SMILES | z-score
1 | O=C(COC(=O)CSc1ccc2ccccc2c1)NC1CCCC1 | 0.968
2 | COC(=O)c1ccc(NC(=O)c2cn(-c3ccccc3)nc2-c2ccncc2)cc1 | -0.00876
3 | Cc1ccc(C(=O)Nc2ccc3c(c2)ncn3C)cc1 | -0.212
4 | Cc1ccc2cc(C)c(Sc3nnnn3-c3ccccc3)nc2c1 | -0.239
5 | CN(C)S(=O)(=O)c1cccc(C(=O)NCCc2ccccc2)c1 | 0.589
6 | COc1ccc(C(=O)NC(=S)Nc2ccc(N3CCCC3)cc2)cc1OC | 0.0182
7 | CCc1nnc(NC(=O)CSc2nnc(Cc3cccn3C)n2C)s1 | -0.376
8 | CCc1c(C)nc2ncnn2c1N1CCC(C(=O)Nc2ccc(C)cc2)CC1 | 0.133
9 | Cn1c2ccccc2c(=O)c2c(=O)n(-c3ccccc3)c(C3CCCCC3)nc21 | -1.31
10 | Cc1ccc(S(=O)(=O)N(CC(=O)N/N=C/c2ccco2)Cc2ccccc2)cc1 | -0.308
11 | CCOC(=O)C1=C(C)NC(C)=C(C(=O)OCC)C1c1ccc(O)cc1 | -0.238
12 | O=C1CC(c2ccc(F)cc2)Cc2nc(N3CCN(c4ccccc4)CC3)ncc21 (stereo not given) | 0.383
13 | CCCCCCC(C)n1cc(C(C)=O)c(=O)[nH]c1=O (stereo not given) | -0.114
14 | Cc1ccc(Sc2nnc(-c3ccccc3)cc2C#N)cc1 | 0.606
15 | C=CCC1c2cccc(C(=O)OC)c2C(=O)N1c1ccccc1 (stereo not given) | 0.0143
16 | CC1CCN(C(=O)C2CCN(S(=O)(=O)c3cccc4nonc34)CC2)CC1 | -0.0352
17 | CC(Oc1ccccc1)C(=O)N1CCCc2ccccc21 (stereo not given) | -0.279
18 | CCNC(=S)N/N=C/c1ccco1 | 0.768
19 | c1ccc(-c2ccc(-c3nc(-c4ccccn4)no3)cc2)cc1 | 1.81
20 | Cc1cc(C)nc(SCCS(=O)(=O)Cc2ccccc2)n1 | 0.17
21 | CCOc1ccc(NC(=O)C(=O)NCC2CCCN2CC)cc1 (stereo not given) | 0.152
22 | CC(=O)CSc1nsc(SCC(C)=O)c1C#N | -0.107
23 | Cc1cc(=O)[nH]c2c1c(C)nn2C1CCCC1 | -0.189
24 | O=C(Nc1ccc(Cl)cc1)C(c1ccccc1)N(CCO)CCO (stereo not given) | 0.0587
25 | CC1(NC(=S)N(CCO)CCO)CCS(=O)(=O)C1 (stereo not given) | -0.232
26 | O=C(COC(=O)Cc1cccc(C(F)(F)F)c1)Nc1ccc2c(c1)OCCO2 | 0.0552
27 | Brc1cc2c(cc1/C=N/Nc1nc(N3CCCC3)nc(N3CCOCC3)n1)OCO2 | -0.709
28 | Cc1nn(C(=O)N2CCOCC2)c(C)c1CN1C(=O)c2ccccc2C1=O | -0.33

Row | SMILES | z-score
29 | Cc1cccc(-c2nc(CN3CCCC(C(=O)NC4CCC(C)CC4)C3)c(C)o2)c1 (stereo not given) | 0.765
30 | N#Cc1nc(-c2ccco2)oc1N1CCC(C(N)=O)CC1 | -1.21
31 | CN(c1ccc(C(=O)N2CCCCC2)cc1)S(=O)(=O)c1ccccc1 | 0.348
32 | COc1cc(CC(=O)Nc2ccc(S(=O)(=O)N(C)C)cc2)cc(OC)c1OC | 1
33 | CCN1C(=O)/C(=c2\o/c(=C3\C=Cc4ccccc4N3CC)c(=O)n2CC)SC1=S | -1.42
34 | Cc1ccccc1-n1c(=O)[nH]c(=O)c2c(N)c(C(=O)c3ccc(Cl)cc3)sc21 | -0.622
35 | O=C(COC(=O)Cc1ccsc1)Nc1ccc(Cl)c(S(=O)(=O)N2CCOCC2)c1 | -0.179
36 | COC(=O)c1ccc(C2/C(=C(/O)c3ccc(OC(C)C)cc3)C(=O)C(=O)N2c2cc(C)on2)cc1 (stereo not given) | -0.394
37 | O=C(COC(=O)Cc1ccc(F)cc1)Nc1cc(S(=O)(=O)N2CCOCC2)ccc1N1CCCC1 | -0.518
38 | c1coc(CN(Cc2ccco2)c2ncnc3c2oc2ccccc23)c1 | -2.18
39 | Cc1cc(NC(=O)CCCN2C(=O)/C(=C\c3cccs3)SC2=S)no1 | -0.408
40 | Cc1ccsc1C(=O)N/N=C/c1ccc([N+](=O)[O-])cc1 | -0.249
41 | COCCCn1c(SCC(=O)N2CCCCC2C)nnc1-c1ccco1 (stereo not given) | -0.163
42 | CCOC(=O)N1CCN(C(=O)C(C)(C)Oc2ccc(Cl)cc2)CC1 | -0.244
43 | Brc1ccccc1OCCOCCOc1cccc2cccnc12 | -0.443
44 | CCNc1nc(SCCOc2ccc(C)cc2)nc(N(C)C)n1 | 0.5
45 | Cc1ccc(CS/C(Nc2ccccc2C)=C(\C#N)C(N)=O)c(C)c1 | -0.0898
46 | CCc1cc[n+](-c2nc3ccccc3nc2C(=C=[N-])C#N)cc1 | -0.0505
47 | CCCCCCCc1nn2c(=O)cc(O)nc2s1 | -0.55
48 | CCC/C(O)=N\S(=O)(=O)c1ccc(N=NN(C)C)cc1 | 0.0936
49 | CC(C)n1cc(NC(=O)C2CC(c3cccc(Br)c3)=NO2)cn1 (stereo not given) | -0.109
50 | COc1ccc(CC(=O)NCCc2ccc(S(N)(=O)=O)cc2)cc1 | 0.445
51 | O=C(Nc1ccccc1-c1nnc(SCc2ccccc2Cl)o1)c1ccccc1 | -0.418
52 | COc1ccc(NC(=O)COC(=O)/C=C/c2ccccc2[N+](=O)[O-])cc1 | -0.25
53 | COc1cc(-c2nnc(CSc3nnc(N)s3)o2)cc(OC)c1OC | 0.176
54 | CC(C)(C)NC(=O)C(c1ccc(O)cc1)N(Cc1ccco1)C(=O)Cn1nnc(-c2cccs2)n1 (stereo not given) | -0.709
55 | CS(=O)(=O)N1CCCC(C(=O)NCCCN2CCC(Cc3ccccc3)CC2)C1 (stereo not given) | -0.0264

From PubChem BioAssay AID488969 (Vanderbilt High Throughput Screening Facility, 2010)
